# Data taken from the supplement of paper PMC3334620.
# Whole data set: some 33,000 sequences, median “E-score (-0.5 to 0.5)” near -0.011, cut for the highest 2% near 0.28. This is one part of the list.
# Target: T1, Gcr1 (UniProt P07261)
# T1 sequence: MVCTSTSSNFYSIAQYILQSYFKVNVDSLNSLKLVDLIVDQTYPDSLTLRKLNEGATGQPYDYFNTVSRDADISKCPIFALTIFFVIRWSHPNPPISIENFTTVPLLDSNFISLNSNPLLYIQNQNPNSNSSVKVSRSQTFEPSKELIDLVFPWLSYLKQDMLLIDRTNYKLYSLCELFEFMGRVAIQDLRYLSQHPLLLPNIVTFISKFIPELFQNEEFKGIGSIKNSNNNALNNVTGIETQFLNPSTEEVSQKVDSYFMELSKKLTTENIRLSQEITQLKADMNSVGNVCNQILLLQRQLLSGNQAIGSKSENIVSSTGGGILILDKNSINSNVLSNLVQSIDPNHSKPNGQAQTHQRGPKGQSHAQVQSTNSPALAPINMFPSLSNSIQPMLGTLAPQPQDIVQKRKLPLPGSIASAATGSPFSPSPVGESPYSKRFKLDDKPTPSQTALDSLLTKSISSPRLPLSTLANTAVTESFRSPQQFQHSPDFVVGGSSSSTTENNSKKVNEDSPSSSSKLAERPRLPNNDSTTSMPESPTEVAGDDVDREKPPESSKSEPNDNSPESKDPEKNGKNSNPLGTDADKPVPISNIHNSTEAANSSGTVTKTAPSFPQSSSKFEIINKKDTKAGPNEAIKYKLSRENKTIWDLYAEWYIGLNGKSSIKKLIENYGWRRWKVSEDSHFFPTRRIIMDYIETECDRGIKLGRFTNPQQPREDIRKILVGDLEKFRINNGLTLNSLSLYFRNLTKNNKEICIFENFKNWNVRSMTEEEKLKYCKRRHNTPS
# Assay: PBM E-score (8-mer binding enrichment) (E-score (-0.5 to 0.5)); higher = stronger / more preferred TF binding; most listed sequences are background and not binding sites
# Conditions: protein concentration: 100 nM; construct: GST-full length
# Method in brief: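 Bound GST-tagged yeast transcription factors, applied at about 100-200 nM to double-stranded universal all-10-mer Agilent arrays, were detected with fluorescent anti-GST. Scans were normalised with masliner. A modified Wilcoxon-Mann-Whitney statistic, the E-score, was assigned to each ungapped eight-base word pooled with its reverse complement by the Universal PBM Analysis Suite.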
row,Sequence,PBM E-score
1,CAGTGCTA,-0.126
2,CTTCCTGC,0.177
3,AGTTATTA,0.0695
4,CTATAACC,-0.0756
5,CCATGCGG,-0.0115
6,AAATTAAG,0.0604
7,GACTTTAA,-0.0686
8,CACTGCCG,-0.0677
9,ATCTCTAC,0.0209
10,AGCCTGTG,-0.235
11,ACATCGGA,-0.0949
12,CCCCCACG,-0.216
13,GTCATGCA,-0.1
14,GAAGGGCA,-0.171
15,CAGTCACC,-0.0546
16,CGAATAGC,-0.154
17,AAAATACA,0.0681
18,GTCCGTTA,-0.0901
19,ACAACTTA,-0.0215
20,AGACAGGG,0.0824
21,ATAACAAA,0.0456
22,ACCTTGTG,-0.204
23,ACTGCGCC,-0.153
24,ATGGAACC,0.294
25,CCTGTCAG,-0.0225

row,Sequence,PBM E-score
1,AAGTAGCA,0.215
2,AGGATTTC,-0.121
3,ACGGGTCT,-0.221
4,GCGTGCAC,-0.0959
5,CGTCCTAA,0.17
6,ATAATGCC,-0.102
7,TACTCTGA,-0.106
8,CATTTCCC,0.0282
9,TTCTAAAA,0.0989
10,GTTAAAAC,-0.0162
11,GACCTAGA,-0.083
12,CGCGTTAC,-0.145
13,CATAACGG,-0.0324
14,AGGTATGG,0.228
15,CATAAACC,-0.215
16,CCTACTCG,-0.0397
17,AGGGGAAC,-0.00862
18,ACTTTAGC,-0.0523
19,AAGATGCC,0.31
20,CTCCAAAG,0.106
21,GGTTTTCA,0.0994
22,GCTTTCCA,-0.0339
23,ATGTTGGA,0.0457
24,AAAAAACT,-0.0404
25,ATGTCTAC,-0.0532

row,Sequence,PBM E-score
1,GATACATC,0.126
2,CAGATCGA,-0.044
3,ATGTCGGG,0.0104
4,TGGCTGAA,0.0392
5,AGGCCGAG,-0.0943
6,AGAGCACG,-0.0799
7,GGAATCAC,0.0399
8,CCATCTAA,0.0606
9,GCACGAAC,0.054
10,CGCTAGCA,0.106
11,AATCACGT,0.0314
12,AACAACTG,0.0271
13,GATAAGGA,0.184
14,GGAAATGA,0.0726
15,AACACTAA,0.065
16,AACTTAGA,0.12
17,AGATGGGG,0.0136
18,AGCCATGC,-0.346
19,CGTCTGGA,0.0436
20,ACGAGCGT,-0.161
21,ACTGCTAA,-0.0287
22,ATAGTGCA,-0.00123
23,CACTAGAC,-0.065
24,AGCTCACA,-0.278
25,CTCGCGGA,0.0288

row,Sequence,PBM E-score
1,CCATCCAG,0.151
2,GACATTGA,0.0742
3,AAATAGCA,0.047
4,ATTTCCAA,0.0988
5,AGCTTTAT,0.114
6,GGATCCTA,0.272
7,CCTGAACG,0.0377
8,CTAACGAG,-0.257
9,GATGCAGA,0.189
10,AGGCCCCA,-0.112
11,CCAACCGA,-0.0275
12,ACAAACGT,0.0511
13,ACAAAGGT,-0.136
14,ACCCCTAA,0.117
15,CGAGGACC,-0.112
16,AGCTGAGG,-0.18
17,CCGGTTCG,-0.0186
18,CGAGCGCC,0.0329
19,ACACACAA,0.102
20,GGTTCCAC,0.305
21,CGCCCGGA,0.0811
22,TAAGGTCA,-0.181
23,AATCGGCG,0.184
24,CCATAAGG,-0.0957
25,ACGTCGCT,0.00247

row,Sequence,PBM E-score
1,CACTGCAA,-0.074
2,AAACACCA,-0.0248
3,GTTCAACA,-0.0157
4,ACGTAGAA,-0.0969
5,TGAATCAA,0.0804
6,ATCATCTC,-0.00135
7,ATCGCTGG,-0.126
8,CTAGGTCA,-0.318
9,CAGTCTAG,0.0197
10,AGTTTCCG,0.176
11,ATTGGGCA,-0.116
12,ACGGCCCA,-0.172
13,CACCTTCC,0.156
14,TGCTGCCA,-0.0494
15,CCCATCAA,0.12
16,GAGAACAA,-0.0288
17,ACTGACGC,-0.142
18,ATTCCACA,0.247
19,AAAGTCTA,-0.0407
20,GCGAAGGA,0.0489
21,AGGACTTG,-0.169
22,AAGTTCCC,0.195
23,GCCCCAGC,-0.0201
24,GTATAGGA,0.095
25,GAATGGGC,0.174

row,Sequence,PBM E-score
1,CGCACGCG,-0.113
2,CCCCTTCC,-0.153
3,ATTCACAA,0.133
4,ACTAAAGG,0.0575
5,ATCCGATG,0.00075
6,ATCGGTGG,0.0966
7,GATCTGGC,0.122
8,GGGGGCAC,0.0135
9,CAGAGCAC,-0.0302
10,AGAGCGGG,0.00264
11,CGAAGGCC,-0.157
12,AACTGGCT,0.0446
13,AGGGCCCA,0.126
14,ACCCATCA,0.0102
15,AGTGAACT,0.0469
16,CATACGAA,0.0396
17,CTTCCCGC,-0.0343
18,GTCCCCTA,0.126
19,GAGTTGAA,0.0916
20,GATAAGGC,-0.0309
21,AAAAGGCG,0.217
22,CCTAATCC,0.00779
23,AATAAATC,0.165
24,CTCCGCAG,0.0264
25,ATATCTGG,0.088

row,Sequence,PBM E-score
1,ACTACGAC,0.0678
2,CTTCATTC,-0.0354
3,TAAATCCA,0.124
4,ATACGTGG,0.169
5,CGTAGAAG,0.275
6,GGTTTGAC,0.0178
7,CGGGGAGA,-0.0481
8,CCCTAAAG,0.0225
9,CTGAGCTC,-0.0736
10,CGTGATCC,-0.0715
11,CTGGCGCC,0.319
12,CACCCTAC,-0.181
13,CACATTGC,-0.0679
14,ATCGGATA,0.0757
15,CTGCCTTA,-0.0279
16,GCATATAA,0.125
17,CTCGCTCA,0.0789
18,GATGCCCA,0.378
19,GAGGATGC,0.423
20,ACTATATG,-0.0145
21,TTAGTGAA,0.133
22,CAAGGCCC,-0.0748
